The other results are listed elsewhere or left out. At the low end of the ranking, values are background and their order means little. Measured with an extract: partners may take part in the binding.

For the experiment, the target named is T1, HNF4alpha8 (COS-7 nuclear extract) (UniProt P41235-5).
T1 sequence: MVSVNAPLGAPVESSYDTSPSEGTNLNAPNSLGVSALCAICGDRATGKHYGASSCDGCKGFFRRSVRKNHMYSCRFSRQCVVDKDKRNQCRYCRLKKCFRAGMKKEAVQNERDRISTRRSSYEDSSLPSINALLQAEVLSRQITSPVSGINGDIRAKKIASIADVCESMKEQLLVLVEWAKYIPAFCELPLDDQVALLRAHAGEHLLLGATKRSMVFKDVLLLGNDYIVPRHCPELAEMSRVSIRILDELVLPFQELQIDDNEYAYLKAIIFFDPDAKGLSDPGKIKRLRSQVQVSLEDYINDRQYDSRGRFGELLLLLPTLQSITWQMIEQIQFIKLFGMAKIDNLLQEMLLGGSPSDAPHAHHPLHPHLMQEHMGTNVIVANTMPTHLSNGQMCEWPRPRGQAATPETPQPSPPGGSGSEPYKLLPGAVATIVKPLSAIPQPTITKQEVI
The experiment can be described thus: protein-binding microarray. The following applies: COS-7 nuclear extract on double-stranded Agilent 4x180k PBM; binding buffer, salt, pH and temperature not given; high values mean tight binding; double strand, one strand shown; sequences stand for … in …GCCTAGGGAGATTAGAGTATCGGTCGA
As to CTCCACTATTGTCCTATGACCCTGCCAAAT, the binding signal (log2 normalized intensity) was 2.99.

With GCTGAGCAGCAATCAGCTCCTCAACCAAGG, the binding signal (log2 normalized intensity) was -1.2.

Regarding CTTCTCTGTTAACCCTTTGCAGCCCCTGTC, the binding signal (log2 normalized intensity) amounted to 3.36.

For the sequence TCAGCACACCCCACGGAGCACATTCCATGC, the binding signal (log2 normalized intensity) is 1.66.

In the case of TATTCAGGAAGTCGCTTGCCAGTATGCCAC, the binding signal (log2 normalized intensity) is -1.27.

As for GATGTAGCTGCAAAGATAAGGATGCCTTTT, the binding signal (log2 normalized intensity) was found to be 1.43.

As for ATCTAATGCCCCAAATGACGCTTTAAGTAG, the binding signal (log2 normalized intensity) was 1.19.

With GGGACTTCGGTCTTTTTTCTGAAGACCTTC, the binding signal (log2 normalized intensity) amounted to 1.97.

As for CGCATTTCCAAAAGAAGAATGTGGCCATTT, the binding signal (log2 normalized intensity) amounted to 0.762.

As for AAGTTCTTTTGTGTGTTTACATAACCTGCC, the binding signal (log2 normalized intensity) was 1.53.

As to GAAGACTTGGGGGAGGAGGGCAACCTTTGA, the binding signal (log2 normalized intensity) was determined as 5.29.

Take AATAACCACAAGGGGGGAGCACCTCCCAAC: the binding signal (log2 normalized intensity) is -1.33.

TTTCAAAGGTCAACATACAGAGGCTCTGAG: the binding signal (log2 normalized intensity) came out at 2.64.

For TGTCAGCCCAAGATAACCTCCCCTCTGACC, the binding signal (log2 normalized intensity) came to 3.67.

With GGGTGGACTTTGGCTTTTCCAAAGGATCCC, the binding signal (log2 normalized intensity) was 4.84.

As to CAAGAAAGACCCAAGGCGTATGAAGCTTTG, the binding signal (log2 normalized intensity) is -1.28.

ATGTTAATGATTACTAGAGATGTCCTGAAA: the binding signal (log2 normalized intensity) was -0.181.

As to AATAGATCTGGTCTTACTGATGGGCAAAGT, the binding signal (log2 normalized intensity) was 2.24.

Take ATAGGCGAGGACGCAGTCCCGCGTGGCCTT: the binding signal (log2 normalized intensity) is -1.23.

For the sequence TTAAAAGCCCAACACGGGCGAAAAAGACGC, the binding signal (log2 normalized intensity) was -1.27.

Consider GGGCCCCTTCCTGGGGGAGTTTCCTGCCTG, for which the binding signal (log2 normalized intensity) is -1.34.

For the sequence AACATTCTATTCTATCTGTATTCTGAAGCC, the binding signal (log2 normalized intensity) amounted to 0.295.

As to ATGCAAAGCCCTGGCTGACCTTTAGCCTGG, the binding signal (log2 normalized intensity) amounted to 7.69.

For the sequence AATGAGCCTCCTGAAGATCCCCTGTTGTGC, the binding signal (log2 normalized intensity) was 1.65.

Consider TGCAGGGATGGACTTTAATCTCCAAGTAAC, for which the binding signal (log2 normalized intensity) came to 5.47.

As to ACGGGTAAATCCGGTTTGGGGACTTCTCCC, the binding signal (log2 normalized intensity) is -1.01.

Turning to AGGGAGGGGAGAGGGGGTTAAAGGTTATTT, the binding signal (log2 normalized intensity) is 5.28.

CTGGGGTTAGCCAAACAAATGGAGAAGGTC: the binding signal (log2 normalized intensity) amounted to 0.534.

For the sequence TTGGCCTGTTTGCTGAAGGCCATGCATGGT, the binding signal (log2 normalized intensity) is 1.14.

For CGGGGGCAAGGGTCAGAGTAAAGCTCCAGT, the binding signal (log2 normalized intensity) was found to be 4.65.

Take AATGAAAGGTTAACCTGCTGGTTTACAACA: the binding signal (log2 normalized intensity) is -1.11.

Turning to ATAGGAGGATTTTATTCAGGTGGCCACTGG, the binding signal (log2 normalized intensity) stood at 0.314.

For ACCTAGAGGCCTTTCTCTCTGCACGAAAAA, the binding signal (log2 normalized intensity) is -1.2.

As for GACCCGTGAATCCTTAAGATTCCTGCTCTA, the binding signal (log2 normalized intensity) was -1.3.

TTTCAACATTTAACTTAACCACTCAATCAG: the binding signal (log2 normalized intensity) was -0.86.

Regarding GGAGAGATAAGAAAAACTGAGCTTTAGATA, the binding signal (log2 normalized intensity) is -1.41.

Regarding CACAGAAGCATGGATGAATGAGTTTCCAGA, the binding signal (log2 normalized intensity) is -1.27.

As for GCTTGTCAGACAAGTTGCAGGGATGGACTT, the binding signal (log2 normalized intensity) was found to be 3.6.

As for TACACAAGCAATAGGGTTCGGTGCAATAAC, the binding signal (log2 normalized intensity) was -0.528.

With GGAAGTACTGCCCTTAACTCCCGGCACTCT, the binding signal (log2 normalized intensity) was -0.618.

Take GCTATTTGCATCAGCAGAGGACAGAAGAAG: the binding signal (log2 normalized intensity) was -1.4.

With GTTGTTCCTTTTCTTTCACATACAAAATTT, the binding signal (log2 normalized intensity) was 1.

Take TGGCCTTAGGGTGAGGCATCTGGACCATTG: the binding signal (log2 normalized intensity) was 2.07.

In the case of CCCTCCCCCACCCGCGGTCCGTCCCTCCTG, the binding signal (log2 normalized intensity) amounted to 5.4.

For the sequence CCTGGACTCTAGAGCCAGACTAGTATTGAG, the binding signal (log2 normalized intensity) stood at 0.874.

For the sequence CAGGATGGGCTCCTGCCTTGGAGAAGTGAA, the binding signal (log2 normalized intensity) was -1.29.

In the case of AATTTGATCCAGTGTGCAAATGTGTCTTTT, the binding signal (log2 normalized intensity) was 1.57.

As for CCTCAGGCCTTTGGACCCAGACTGAATCAC, the binding signal (log2 normalized intensity) was found to be 3.33.

On to AGAGAAACCTGGCTGCGAGTCCCTGCTGTG, for which the binding signal (log2 normalized intensity) was -1.36.

With AAATAGAGAGCAGACAGGGGCTCAGCTGTC, the binding signal (log2 normalized intensity) is -1.33.

Consider TCAAAGGTCAGAAAAAGCTGACGCCCCACC, for which the binding signal (log2 normalized intensity) amounted to 2.88.

As to TCCAGCCCCAGGCTGAGCGTGAACACCGGC, the binding signal (log2 normalized intensity) was -1.21.

Turning to TCCAAAGTATTTTCTGTCTAGGTGCCAGAA, the binding signal (log2 normalized intensity) came out at 0.836.

As to TCAGAAAGCAGAAGTTCTAGGAGCCTGGAC, the binding signal (log2 normalized intensity) is -1.25.

Take TAAATACCATTAGGGGGCAATTTCCCTGGT: the binding signal (log2 normalized intensity) amounted to 1.31.

Take GACTTAGCACAGGAAAGGGCTTTGGGGACT: the binding signal (log2 normalized intensity) is -1.05.

As to TAAGCATAACTGGTTCAACCTGTTTCCACT, the binding signal (log2 normalized intensity) was -1.29.

For the sequence GCAGCGCGGGGCTCAAAGGCGGCCCGGGTG, the binding signal (log2 normalized intensity) is -1.18.

As to CTGAAGTCCCCTGTGCTTTGGCCAAATAAT, the binding signal (log2 normalized intensity) is 1.7.

On to TGAGGCCGGAGGGCAGGCGGGCCGCCTTTC, for which the binding signal (log2 normalized intensity) was -1.29.

Regarding TTCTCCAGTCTATCAGACCAGCATTCTTTC, the binding signal (log2 normalized intensity) was -1.31.

In the case of TCTGTAAAAGCCAGCATTTCTGTGGACTGC, the binding signal (log2 normalized intensity) was determined as 1.74.

As for GTGTGGTGATGGCAGGAGTCAACAGGCAGA, the binding signal (log2 normalized intensity) was -1.33.

For CTGATAGAAAACGTTCACGTCTCAAGCTTC, the binding signal (log2 normalized intensity) was -1.3.

For the sequence TCTCTTGTGCTCATGACAAAGAAATGTAAC, the binding signal (log2 normalized intensity) worked out at 0.609.

With AGAGGAGCATGGACTTCTGAGCTTGGCAAA, the binding signal (log2 normalized intensity) is -1.25.

For ATGGGTCCAAAGTTCTGAATGAGCAGACTG, the binding signal (log2 normalized intensity) is 3.84.

For GCCGAGCCTGCAGGTGAATGGAAACAAGAG, the binding signal (log2 normalized intensity) is -1.3.

Turning to CCAATAGGTTTGATTTCAGCATGTTTAAAT, the binding signal (log2 normalized intensity) was 0.477.

Turning to TTTCCAGTCTAAAATACCTGTTCTCCAGCT, the binding signal (log2 normalized intensity) is -1.31.

For GTTGTCTGTGACTGGGGTCAAACTCCACAT, the binding signal (log2 normalized intensity) turned out to be 6.97.

As for AGTGCCTGCTTGCAGATAAAACATTTTTTT, the binding signal (log2 normalized intensity) came to 0.0478.
